The IC50 comes from the fitted curve, where viability falls to half of the control; fits outside the tested doses are given as limits. The AUC spans the tested range (256-fold, ending at the top dose) of the same fit; values near 1 show little effect. For some of these results: A top dose marked as inferred is not printed in the source and was worked back from the curve model. For some of these results: An entry number marks a drug with two screens in the source, which often give different values.
Tests used:
Test in all cases: Viability of human cancer cell lines after 72 h of drug (GDSC screen)
Thapsigargin = compound: C/C=C(/C)C(=O)O[C@H]1C(C)=C2[C@H]([C@@H]1OC(=O)CCCCCCC)[C@@](C)(OC(C)=O)C[C@H](OC(=O)CCC)[C@@]1(O)[C@H]2OC(=O)[C@@]1(C)O [Thapsigargin]; settings: top dose 0.512 µM; top dose inferred
Procedure: (§1)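 Human cancer cell lines in 384-well plates, medium with 10% serum, drug for 72 h over a 256-fold dose range (nine 2-fold or five 4-fold steps up to the top dose). Adherent lines were fixed and stained with the nucleic acid dye Syto60, suspension lines read with resazurin; signal relative to control wells, capped at 0 and 100%. One two-parameter sigmoid per drug and line, fitted in a mixed model over all curves with the slope shared within a line.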

QL-X-138 = compound: C=CC(=O)Nc1cc(-n2c(=O)ccc3cnc4ccc(-c5cn[nH]c5)cc4c32)ccc1C [QL-X-138]; settings: top dose 10.24 µM; top dose inferred
Procedure: as §1

GSK269962A = compound: CCn1c(-c2nonc2N)nc2cnc(Oc3cccc(NC(=O)c4ccc(OCCN5CCOCC5)cc4)c3)cc21 [GSK269962A]; settings: top dose 5 µM; screen: GDSC drug entry 1192; top dose inferred
Procedure: as §1

MPS-1-IN-1 = compound: COc1cc(N2CCC(O)CC2)ccc1Nc1cc(Nc2ccccc2S(=O)(=O)C(C)C)c2cc[nH]c2n1 [MPS-1-IN-1]; settings: top dose 20 µM; top dose inferred
Procedure: as §1

(5Z)-7-Oxozeaenol = compound: COc1cc(O)c2c(c1)/C=C/C[C@H](O)[C@H](O)C(=O)/C=C\C[C@H](C)OC2=O [(5Z)-7-Oxozeaenol]; settings: top dose 10 µM; top dose inferred
Procedure: as §1

CP466722 = compound: COc1cc2ncnc(-n3nc(-c4ccccn4)nc3N)c2cc1OC [CP466722]; settings: top dose 16 µM; top dose inferred
Procedure: as §1

Zibotentan = compound: COc1nc(C)cnc1NS(=O)(=O)c1cccnc1-c1ccc(-c2nnco2)cc1 [Zibotentan]; settings: top dose 20 µM; top dose inferred
Procedure: as §1

ABT-888 = compound: C[C@]1(c2nc3c(C(N)=O)cccc3[nH]2)CCCN1 [ABT-888]; settings: top dose 5 µM; top dose inferred
Procedure: as §1

ABT-869 = compound: Cc1ccc(F)c(NC(=O)Nc2ccc(-c3cccc4[nH]nc(N)c34)cc2)c1 [ABT-869]; settings: top dose 1.024 µM; top dose inferred
Procedure: as §1

CHIR-99021 = compound: Cc1cnc(-c2cnc(NCCNc3ccc(C#N)cn3)nc2-c2ccc(Cl)cc2Cl)[nH]1 [CHIR-99021]
Procedure: as §1

Cytarabine = compound: Nc1ccn([C@@H]2O[C@H](CO)[C@@H](O)[C@@H]2O)c(=O)n1 [Cytarabine]; settings: top dose 2 µM
Procedure: as §1

KU-55933 = compound: O=c1cc(-c2cccc3c2Sc2ccccc2S3)oc(N2CCOCC2)c1 [KU-55933]; settings: top dose 10 µM
Procedure: as §1

[1] = top dose 2.56 µM, screen: GDSC drug entry 154
[2] = top dose 10 µM, screen: GDSC drug entry 1241, top dose inferred

Cell Line | AUC (Thapsigargin) | IC50 (Thapsigargin) [µM] | AUC (QL-X-138) | IC50 (QL-X-138) [µM] | AUC (GSK269962A) | IC50 (GSK269962A) [µM] | AUC (MPS-1-IN-1) | IC50 (MPS-1-IN-1) [µM] | AUC ((5Z)-7-Oxozeaenol) | IC50 ((5Z)-7-Oxozeaenol) [µM] | AUC (CP466722) | IC50 (CP466722) [µM] | AUC (Zibotentan) | IC50 (Zibotentan) [µM] | AUC (ABT-888) | IC50 (ABT-888) [µM] | AUC (ABT-869) | IC50 (ABT-869) [µM] | AUC (CHIR-99021; [1]) | IC50 (CHIR-99021; [1]) [µM] | AUC (CHIR-99021; [2]) | IC50 (CHIR-99021; [2]) [µM] | AUC (Cytarabine) | IC50 (Cytarabine) [µM] | AUC (KU-55933) | IC50 (KU-55933) [µM]
CAL-27 (head and neck, adherent) | 0.201 | 0.00409 | 0.798 | 4.98 | 0.837 | 3.43 | 0.84 | 14.2 | 0.553 | 0.874 | 0.897 | > 16 | 0.985 | > 20 | 0.957 | > 5 | 0.982 | > 1.02 | 0.985 | > 2.56 | 0.954 | > 10 | 0.832 | 1.32 | 0.953 | > 10
CAL-29 (bladder, adherent) | 0.784 | 0.235 | 0.806 | 5.69 | 0.828 | 3.42 | 0.974 | > 20 | 0.524 | 0.729 | 0.865 | 15.9 | 0.977 | > 20 | 0.981 | > 5 | 0.971 | > 1.02 | 0.959 | > 2.56 | 0.937 | > 10 | 0.77 | 0.821 | 0.944 | > 10
CAL-39 (cervix, adherent) | 0.193 | 0.00374 | 0.92 | > 10.2 | 0.904 | > 5 | 0.848 | 15.8 | 0.763 | 3.73 | 0.872 | > 16 | 0.98 | > 20 | 0.979 | > 5 | 0.983 | > 1.02 | 0.986 | > 2.56 | 0.971 | > 10 | 0.8 | 1.01 | 0.981 | > 10
CAL-62 (thyroid, adherent) | 0.33 | 0.011 | 0.806 | 4.91 | 0.659 | 0.845 | 0.967 | > 20 | 0.397 | 0.331 | 0.885 | > 16 | 0.986 | > 20 | 0.96 | > 5 | 0.986 | > 1.02 | 0.981 | > 2.56 | 0.946 | > 10 | 0.717 | 0.497 | 0.97 | > 10
CAL-72 (osteosarcoma, adherent) | 0.289 | 0.0072 | 0.984 | > 10.2 | 0.765 | 2.15 | 0.984 | > 20 | 0.608 | 1.31 | 0.984 | > 16 | 0.981 | > 20 | 0.982 | > 5 | 0.982 | > 1.02 | 0.877 | > 2.56 | 0.895 | > 10 | 0.727 | 0.63 | 0.933 | > 10

— the supplement of paper PMC4967469
